Results: patent publication US10717746B2, “Chemical compounds” (ASTRAZENECA AB, priority 2015, dated 2020)
The name of at least one read-out is uncertain.

System: MV411 cells
Assay: MV411 caspase activity assay (Caspase-Glo 3/7)
Assay type: cell-based
Details: 6-hr treatment, caspase 3/7 induction, read-out: MV4-11 Caspase Activity (IC50)
Protocol: MV411 Caspase Activity Assay
This is a cell assay to measure the induction of caspase activity in the acute myeloid leukemia cell line, MV411 after 6-hr treatment with CDK9 inhibitors. On the first day, 3000 MV411 cells/well were seeded in 50 μl of growth media (IMDM+10% FBS+2% L-Glu+P/S) in 384-well white plates, incubate plates in 37° C. incubator overnight. […] After 6 hour incubation in 37° C. incubator, 25 μl of Caspase-Glo 3/7 reagent (Promega) per well was added into each well, and plates were incubated at room temperature for 30 min in dark. The plates were read on an Infinite M200 microplate reader (Tecan) with a 100 ms integration time.

| IC50 | SMILES |
| --- | --- |
| 318 nM | CC(=O)N[C@@H]1CCC[C@H](C(=O)Nc2cc(-c3cnn4c3C(O)C(C)(C)C4)c(Cl)cn2)C1 (single isomer, unassigned) [Example 80] |
| 4830 nM | COC1CCc2c(-c3cc(NC(=O)[C@H]4CCC[C@@H](NC(C)=O)C4)ncc3Cl)cnn2C1 (single isomer, unassigned) [Example 71] |
| 4840 nM | CC(=O)N[C@H]1CCC[C@H](C(=O)Nc2cc(-c3cnn4c3CC(C)(C)C4)c(Cl)cn2)C1 (single isomer, unassigned) [Example 59, trans-3-acetamido-N-(5-chloro-4-(5,5-dimethyl-5,6-dihydro-4H-pyrrolo[1,2-b]pyrazol-3-yl)pyridin-2-yl)cyclohexanecarboxamide] |
| 166 nM | CC(=O)N[C@@H]1CCC[C@H](C(=O)Nc2cc(-c3cnn4c3CCC(C)C4)c(Cl)cn2)C1 (single isomer, unassigned) [Example 68] |
| 15 nM | CC(=O)N[C@@H]1CCC[C@H](C(=O)Nc2cc(-c3cnn4c3C(O)C(C)(C)C4)c(Cl)cn2)C1 (single isomer, unassigned) [Example 79] |
| 447 nM | COC1CCn2ncc(-c3cc(NC(=O)[C@H]4CCC[C@@H](NC(C)=O)C4)ncc3Cl)c2C1 (single isomer, unassigned) [Example 73] |
| 107 nM | COC1CCc2c(-c3cc(NC(=O)[C@H]4CCC[C@@H](NC(C)=O)C4)ncc3Cl)cnn2C1 (single isomer, unassigned) [Example 70] |
| 68 nM | CC(=O)N[C@H]1CCC[C@H](C(=O)Nc2cc(-c3cnn4c3CC(C)(C)C4)c(Cl)cn2)C1 (single isomer, unassigned) [Example 60, trans-3-acetamido-N-(5-chloro-4-(5,5-dimethyl-5,6-dihydro-4H-pyrrolo[1,2-b]pyrazol-3-yl)pyridin-2-yl)cyclohexanecarboxamide] |
| 77 nM | CC(=O)N[C@@H]1CCC[C@H](C(=O)Nc2cc(-c3cnn4c3CC(C)C4)c(Cl)cn2)C1 (single isomer, unassigned) [Example 41] |
| 792 nM | CC(=O)N[C@@H]1CCC[C@H](C(=O)Nc2cc(-c3cnn4c3CCC(C)C4)c(Cl)cn2)C1 (single isomer, unassigned) [Example 69] |
| 48 nM | CC(=O)N[C@@H]1CCC[C@H](C(=O)Nc2cc(-c3cnn4c3CC(C)CC4)c(Cl)cn2)C1 (single isomer, unassigned) [Example 65] |
